This is an account of results in US20250353901A1 (ON TARGET MOLECULES BIOTECH, published 2025).

The target in this assay is T1, P2X7 (human, UniProt Q99572 1-595).
T1 construct: also called human P2X7 receptor; P2X7 receptor
T1 sequence (looked up): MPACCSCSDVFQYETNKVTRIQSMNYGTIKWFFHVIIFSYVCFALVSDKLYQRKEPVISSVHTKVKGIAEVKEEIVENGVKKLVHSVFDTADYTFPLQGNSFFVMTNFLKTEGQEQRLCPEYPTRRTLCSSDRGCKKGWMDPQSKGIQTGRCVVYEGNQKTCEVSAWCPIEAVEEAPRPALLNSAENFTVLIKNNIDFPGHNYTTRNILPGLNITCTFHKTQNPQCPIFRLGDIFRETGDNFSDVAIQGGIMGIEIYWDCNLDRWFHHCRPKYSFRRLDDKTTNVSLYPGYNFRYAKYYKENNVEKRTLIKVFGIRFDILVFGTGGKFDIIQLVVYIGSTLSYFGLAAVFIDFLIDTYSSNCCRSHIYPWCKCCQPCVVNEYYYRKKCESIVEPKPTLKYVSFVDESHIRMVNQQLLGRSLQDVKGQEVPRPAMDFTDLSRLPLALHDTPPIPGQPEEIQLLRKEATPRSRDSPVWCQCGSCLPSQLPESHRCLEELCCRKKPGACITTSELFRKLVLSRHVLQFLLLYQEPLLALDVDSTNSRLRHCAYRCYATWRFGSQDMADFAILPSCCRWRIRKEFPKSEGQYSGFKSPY
Nature of the assay: protein painting and mass spectrometry of treated prostate and bladder cancer cell lines.

B1: Fusion Protein 2G7.A8 scFv-hFc-7F11.B9 scFv (Fc fusion)
chain: EVKLEESGGGLVQPGGSMKLSCVASGFTFSNYWMNWVRQSPEKGLEWVAQIRLRSDDYATHYAESVKGRFTISRDDSQSSVYLQMNNLRAEDTGIYYCTGPANWGYWYFDVWGTGTTVTVSSGGGGSGGGGSGGGGSDVLMTQTPLSLPVSLGDQASISCRSSQSIVQTNGNTYLEWYLQKPGQSPKLLIYKVSNRFSGVPDRFSGSGSGTDFTLKISRVEAEDLGVYYCFQGSHVPLTFGAGTKLELKGGG[letters of human IgG1 Fc not shown]GGGEVQLQQSGTVLARPGASVKMSCKTSGYTFTSYWMHWVKQRPGQGLEWIGAIYPGNSDTSYNQKFKGKAKLTAVTSASTAYMELSSLTHEDSAVYYCTRRGYYYGSSSHFDYWGQGTTLTVSSGGGGSGGGGSGGGGSDVVMTQTPLSLPVSLGDQASISCRSSQSLVHSNGNTYLHWYLQKPGQSPKLLIYKVSNRFSGVPDRFSGSGSGTDFTLKISRVEAEDLGVYFCSQSTHVPPTFGGGTKLEIK
notes: also called Fc fusion protein; 7F11.B9 scFv-hFc-2G7.A8
On to B1, for which the binding result is recorded as “no binding”.
